Measurements reported in the RNAGym collection of RNA variant scans (doi:10.1093/nar/gkz1192).
Read counts are not given, so values of variants with three or more changes are uncertain.

B1: CPEB3 Ribozyme (parent)
chain: UAACAGGGGGCCACAGCAGAAGCGUUCACGUCGCAGCCCCUGUCAGAUUCUGGUGAAUCUGCGAAUUCUGCUGUAUAUCUC

Variants of: B1
Assay: self-cleavage, relative activity (ratio to wild type); higher = more cleavage; in vitro, sequencing
Procedure, shortened: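 Relative activity compares each variant's cleaved/total read fraction with that of the unmutated ribozyme. To get these fractions, barcoded CPEB3 ribozyme libraries from rounds of error-prone PCR were transcribed with T7 RNA polymerase for 5 hours at 37°C and then given 15 min of DNase I treatment before EDTA was added. The RNAs were reverse transcribed with template switching and sequenced on Illumina, and DNA sequencing linked barcodes to variants. A minimum of 5 reads applied, and three batches were averaged.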

Q: Which self-cleavage does the source give for U31C A45G U48C U74C here?
A: Its self-cleavage is 0.13.

Q: With U31C A45G U54C as the variant, how does the self-cleavage read?
A: The self-cleavage was 0.32.

Q: Which self-cleavage does the source give for U31C A45G U58A here?
A: The self-cleavage was 0.08.

Q: For U31C A45G U69C, which self-cleavage is on record?
A: Its self-cleavage is 0.26.

Q: Which self-cleavage does the source give for U31C A45G U80C here?
A: The self-cleavage was 0.69.

Q: With U31C A45U A56C U58C A65G U69C as the variant, how does the self-cleavage read?
A: The self-cleavage was 0.13.

Q: Which self-cleavage does the source give for U31C A45U A64U U67C U72C U78A here?
A: The self-cleavage was 0.11.

Q: With U31C A45U U49G A56G as the variant, how does the self-cleavage read?
A: The self-cleavage was 0.09.

Q: For U31C A47C U60C A65G, which self-cleavage is on record?
A: The self-cleavage was 0.12.

Q: Which self-cleavage does the source give for U31C A47G A56G A77G here?
A: Its self-cleavage is 0.47.

Q: With U31C A56G A57G as the variant, how does the self-cleavage read?
A: Its self-cleavage is 0.36.

Q: With U31C A56U C81A as the variant, how does the self-cleavage read?
A: The self-cleavage was 0.35.

Q: With U31C A57G G70U as the variant, how does the self-cleavage read?
A: The self-cleavage was 0.18.

Q: With U31C A57U A77U as the variant, how does the self-cleavage read?
A: The self-cleavage was 0.49.

Q: Which self-cleavage does the source give for U31C A64G A65G here?
A: Its self-cleavage is 0.1.

Q: Which self-cleavage does the source give for U31C A64U U80C here?
A: Its self-cleavage is 0.3.

Q: For U31C C34A A47C A77G, which self-cleavage is on record?
A: The self-cleavage was 0.08.

Q: Which self-cleavage does the source give for U31C C34U A47U A75U here?
A: The self-cleavage was 0.09.

Q: With U31C C34U U41A U54A U67C as the variant, how does the self-cleavage read?
A: The self-cleavage was 0.09.

Q: For U31C C34U U48C U51C A57G, which self-cleavage is on record?
A: Its self-cleavage is 0.14.

Q: For U31C C39U A47G G73A, which self-cleavage is on record?
A: The self-cleavage was 1.16.

Q: Which self-cleavage does the source give for U31C C39U U48A here?
A: Its self-cleavage is 0.12.

Q: For U31C C39U U54C C62U U80C, which self-cleavage is on record?
A: The self-cleavage was 0.15.

Q: Which self-cleavage does the source give for U31C C39U U60A A75G U78A here?
A: The self-cleavage was 0.1.

Q: Which self-cleavage does the source give for U31C C40U A47G A56G A77G here?
A: The self-cleavage was 0.16.

Q: Which self-cleavage does the source give for U31C C40U U49C U72C here?
A: Its self-cleavage is 0.17.

Q: Which self-cleavage does the source give for U31C C40U U76C here?
A: The self-cleavage was 0.76.

Q: For U31C G33A A45U U49C U51A U72C, which self-cleavage is on record?
A: The self-cleavage was 0.14.

Q: Which self-cleavage does the source give for U31C G33A U78C here?
A: The self-cleavage was 0.35.

Q: Which self-cleavage does the source give for U31C G36A A65G here?
A: Its self-cleavage is 0.16.

Q: For U31C G36A U60A, which self-cleavage is on record?
A: Its self-cleavage is 0.1.

Q: For U31C G42A A56U C68A, which self-cleavage is on record?
A: Its self-cleavage is 0.2.

Q: For U31C G42C U54C A56G A64G U78C, which self-cleavage is on record?
A: Its self-cleavage is 0.14.

Q: For U31C G46A U60C U72A A77G, which self-cleavage is on record?
A: Its self-cleavage is 0.05.

Q: With U31C G53U U60A U66C G73U as the variant, how does the self-cleavage read?
A: Its self-cleavage is 0.29.

Q: Which self-cleavage does the source give for U31C U41A U43G A77U here?
A: The self-cleavage was 0.21.

Q: For U31C U41A U48C U60C G63U A65G, which self-cleavage is on record?
A: Its self-cleavage is 0.12.

Q: With U31C U41A U58C as the variant, how does the self-cleavage read?
A: Its self-cleavage is 0.18.

Q: With U31C U41C A45G A64U as the variant, how does the self-cleavage read?
A: Its self-cleavage is 0.2.

Q: Which self-cleavage does the source give for U31C U41C A56G G63C U76A here?
A: The self-cleavage was 0.69.

Q: For U31C U41C A57G U78A, which self-cleavage is on record?
A: The self-cleavage was 1.1.

Q: With U31C U41C U48C A57G as the variant, how does the self-cleavage read?
A: The self-cleavage was 0.78.

Q: For U31C U41G U69C, which self-cleavage is on record?
A: The self-cleavage was 0.1.

Q: For U31C U43A A45G U60C, which self-cleavage is on record?
A: Its self-cleavage is 1.02.

Q: Which self-cleavage does the source give for U31C U43A A64G U67C U69A here?
A: Its self-cleavage is 0.19.

Q: Which self-cleavage does the source give for U31C U43A U72C here?
A: Its self-cleavage is 0.44.

Q: With U31C U43C A45U U48C A56U A57G U69A as the variant, how does the self-cleavage read?
A: Its self-cleavage is 0.05.

Q: With U31C U43C C50A U69A as the variant, how does the self-cleavage read?
A: Its self-cleavage is 0.09.

Q: Which self-cleavage does the source give for U31C U43C U49A U54C U67A here?
A: Its self-cleavage is 0.12.

Q: Which self-cleavage does the source give for U31C U48C A57G A65G here?
A: Its self-cleavage is 0.38.

Q: Which self-cleavage does the source give for U31C U48C A65G U67C U76A here?
A: The self-cleavage was 0.12.

Q: With U31C U48C U78C U80A as the variant, how does the self-cleavage read?
A: The self-cleavage was 0.36.

Q: Which self-cleavage does the source give for U31C U49C A56G U80A here?
A: The self-cleavage was 1.04.

Q: For U31C U49C U51A A56G U72A, which self-cleavage is on record?
A: The self-cleavage was 0.66.

Q: For U31C U51A A64G, which self-cleavage is on record?
A: Its self-cleavage is 0.33.

Q: For U31C U51A U74A, which self-cleavage is on record?
A: The self-cleavage was 1.21.

Q: Which self-cleavage does the source give for U31C U51C A65G here?
A: The self-cleavage was 0.27.

Q: With U31C U51C G52U A56U G61A U66A as the variant, how does the self-cleavage read?
A: Its self-cleavage is 0.13.

Q: For U31C U51G G52U, which self-cleavage is on record?
A: Its self-cleavage is 0.75.

Q: With U31C U58A U72A as the variant, how does the self-cleavage read?
A: Its self-cleavage is 0.18.

Q: With U31C U58C U74C as the variant, how does the self-cleavage read?
A: The self-cleavage was 0.53.

Q: For U31C U60A U69A, which self-cleavage is on record?
A: Its self-cleavage is 0.21.

Q: With U31C U60A U80C as the variant, how does the self-cleavage read?
A: The self-cleavage was 0.49.

Q: With U31C U60C C68U as the variant, how does the self-cleavage read?
A: Its self-cleavage is 0.48.

Q: Which self-cleavage does the source give for U31C U60C U72A here?
A: The self-cleavage was 0.13.

Q: For U31C U66G C71U U72C, which self-cleavage is on record?
A: The self-cleavage was 0.06.

Q: With U31C U69C A77U as the variant, how does the self-cleavage read?
A: Its self-cleavage is 0.32.

Q: With U31C U69C U76C as the variant, how does the self-cleavage read?
A: The self-cleavage was 0.26.

Q: Which self-cleavage does the source give for U31G A35U A47G U74C here?
A: The self-cleavage was 0.24.

Q: Which self-cleavage does the source give for U31G A45G U51C A64G A75G here?
A: Its self-cleavage is 0.14.

Q: With U31G A56G U69A U72C as the variant, how does the self-cleavage read?
A: The self-cleavage was 0.15.

Q: Which self-cleavage does the source give for U31G A57G U60C here?
A: Its self-cleavage is 0.15.

Q: Which self-cleavage does the source give for U31G A64G U74C here?
A: The self-cleavage was 0.67.

Q: With U31G G42A U49C U60C U80C as the variant, how does the self-cleavage read?
A: Its self-cleavage is 0.1.

Q: Which self-cleavage does the source give for U31G G52A U69C C79U here?
A: The self-cleavage was 0.33.

Q: Which self-cleavage does the source give for U31G U41G A45G here?
A: The self-cleavage was 0.42.

Q: With U31G U49C U78C as the variant, how does the self-cleavage read?
A: The self-cleavage was 0.4.

Q: With U31G U51C U60C as the variant, how does the self-cleavage read?
A: The self-cleavage was 0.11.

Q: Which self-cleavage does the source give for U31G U67G A75G here?
A: The self-cleavage was 0.34.

Q: For C32A A35G U48C U78C, which self-cleavage is on record?
A: Its self-cleavage is 0.17.

Q: For C32A A35U U43C A45C U72A, which self-cleavage is on record?
A: The self-cleavage was 0.15.

Q: With C32A A45C U49A G70C U78C as the variant, how does the self-cleavage read?
A: Its self-cleavage is 0.07.

Q: For C32A A64G C79U, which self-cleavage is on record?
A: Its self-cleavage is 0.22.

Q: With C32A C34G U60C as the variant, how does the self-cleavage read?
A: Its self-cleavage is 0.12.
